{"source": "the antibiotic and cytotoxicity screens of Wong et al. (2023)", "key": {"[1]": {"test_system": "HSkMC (human skeletal muscle cells)", "experiment": "cytotoxicity call (relative viability < 0.9)", "settings": "10 µM"}, "[2]": {"test_system": "HepG2", "experiment": "cytotoxicity call (relative viability < 0.9)", "settings": "10 µM"}, "[3]": {"test_system": "S. aureus RN4220", "experiment": "growth inhibition call (relative growth <= 0.2)", "settings": "50 µM"}}, "note": "The list shows a part of the results.", "data": [{"smiles": "COCCNC(=O)C[C@H]1C[C@@H]2c3cc(NC(=O)COC)ccc3O[C@@H]2[C@H](CO)O1", "values": [{"measurement": "cytotoxicity call", "setting": "[1]", "result": "inactive"}, {"measurement": "cytotoxicity call", "setting": "[2]", "result": "inactive"}, {"measurement": "growth inhibition call", "setting": "[3]", "result": "inactive"}]}, {"smiles": "Cc1ccccc1S(=O)(=O)N1C[C@H](O)COC[C@@H]2O[C@H](CC(=O)NCc3ccccc3Cl)CC[C@H]21", "values": [{"measurement": "cytotoxicity call", "setting": "[1]", "result": "inactive"}, {"measurement": "cytotoxicity call", "setting": "[2]", "result": "inactive"}, {"measurement": "growth inhibition call", "setting": "[3]", "result": "inactive"}]}, {"smiles": "C[C@@H]1CN([C@@H](C)CO)C(=O)Cc2cc(NC(=O)Cn3cnnn3)ccc2O[C@@H]1CN(C)Cc1ccccc1", "values": [{"measurement": "cytotoxicity call", "setting": "[1]", "result": "inactive"}, {"measurement": "cytotoxicity call", "setting": "[2]", "result": "inactive"}, {"measurement": "growth inhibition call", "setting": "[3]", "result": "inactive"}]}, {"smiles": "Cc1ccc(S(=O)(=O)Nc2ccc3c(c2)C(=O)N([C@@H](C)CO)C[C@@H](C)[C@@H](CN(C)Cc2ccc4c(c2)OCO4)OCCCC[C@@H](C)O3)cc1", "values": [{"measurement": "cytotoxicity call", "setting": "[1]", "result": "inactive"}, {"measurement": "cytotoxicity call", "setting": "[2]", "result": "inactive"}, {"measurement": "growth inhibition call", "setting": "[3]", "result": "inactive"}]}, {"smiles": "C[C@@H]1CCCCO[C@@H](CN(C)Cc2ccncc2)[C@@H](C)CN([C@H](C)CO)C(=O)c2cc(NC(=O)CCCCCC(=O)Nc3ccccc3N)ccc2O1", "values": [{"measurement": "cytotoxicity call", "setting": "[1]", "result": "inactive"}, {"measurement": "cytotoxicity call", "setting": "[2]", "result": "inactive"}, {"measurement": "growth inhibition call", "setting": "[3]", "result": "inactive"}]}, {"smiles": "C[C@H](CO)N1C[C@H](C)[C@@H](CN(C)C(=O)Nc2cccc3ccccc23)OCCCC[C@H](C)Oc2ccc(NS(=O)(=O)c3ccc(F)cc3)cc2C1=O", "values": [{"measurement": "cytotoxicity call", "setting": "[1]", "result": "inactive"}, {"measurement": "cytotoxicity call", "setting": "[2]", "result": "inactive"}, {"measurement": "growth inhibition call", "setting": "[3]", "result": "inactive"}]}, {"smiles": "COc1ccc(S(=O)(=O)N(C)C[C@H]2Oc3c(NC(=O)C4CCOCC4)cccc3C(=O)N([C@H](C)CO)C[C@@H]2C)cc1", "values": [{"measurement": "cytotoxicity call", "setting": "[1]", "result": "inactive"}, {"measurement": "cytotoxicity call", "setting": "[2]", "result": "inactive"}, {"measurement": "growth inhibition call", "setting": "[3]", "result": "inactive"}]}, {"smiles": "O=C(CN1CCOCC1)NCC[C@@H]1CC[C@H](NC(=O)Nc2ccccc2)[C@@H](CO)O1", "values": [{"measurement": "cytotoxicity call", "setting": "[1]", "result": "inactive"}, {"measurement": "cytotoxicity call", "setting": "[2]", "result": "inactive"}, {"measurement": "growth inhibition call", "setting": "[3]", "result": "inactive"}]}, {"smiles": "C[C@H]1CN([C@@H](C)CO)C(=O)c2cccc(NC(=O)Nc3cccc4ccccc34)c2O[C@H]1CN(C)S(=O)(=O)c1ccc(F)cc1", "values": [{"measurement": "cytotoxicity call", "setting": "[1]", "result": "inactive"}, {"measurement": "cytotoxicity call", "setting": "[2]", "result": "inactive"}, {"measurement": "growth inhibition call", "setting": "[3]", "result": "inactive"}]}, {"smiles": "C[C@H]1CN([C@@H](C)CO)C(=O)Cc2cc(NS(=O)(=O)c3cccs3)ccc2O[C@@H]1CN(C)Cc1ccncc1", "values": [{"measurement": "cytotoxicity call", "setting": "[1]", "result": "inactive"}, {"measurement": "cytotoxicity call", "setting": "[2]", "result": "inactive"}, {"measurement": "growth inhibition call", "setting": "[3]", "result": "inactive"}]}, {"smiles": "COc1nc(N2CCOCC2)nc(N)c1[N+](=O)[O-]", "values": [{"measurement": "cytotoxicity call", "setting": "[1]", "result": "inactive"}, {"measurement": "cytotoxicity call", "setting": "[2]", "result": "inactive"}, {"measurement": "growth inhibition call", "setting": "[3]", "result": "inactive"}]}, {"smiles": "CN1C(=O)c2cc(NS(=O)(=O)c3ccc(F)cc3)ccc2OC[C@H]2O[C@H](CC(=O)NCC(F)(F)F)CC[C@H]21", "values": [{"measurement": "cytotoxicity call", "setting": "[1]", "result": "inactive"}, {"measurement": "cytotoxicity call", "setting": "[2]", "result": "inactive"}, {"measurement": "growth inhibition call", "setting": "[3]", "result": "inactive"}]}, {"smiles": "CC(C)(C)C#CC(=O)C#CC(C)(C)C", "values": [{"measurement": "cytotoxicity call", "setting": "[1]", "result": "inactive"}, {"measurement": "cytotoxicity call", "setting": "[2]", "result": "inactive"}, {"measurement": "growth inhibition call", "setting": "[3]", "result": "inactive"}]}, {"smiles": "CCS(=O)(=O)Nc1ccc2c(c1)C(=O)N(C)[C@@H]1CC[C@@H](CC(=O)NCCOC)O[C@H]1CO2", "values": [{"measurement": "cytotoxicity call", "setting": "[1]", "result": "inactive"}, {"measurement": "cytotoxicity call", "setting": "[2]", "result": "inactive"}, {"measurement": "growth inhibition call", "setting": "[3]", "result": "inactive"}]}, {"smiles": "C[C@@H]1CCCCO[C@@H](CN(C)S(=O)(=O)c2cccs2)[C@H](C)CN([C@H](C)CO)C(=O)c2cc(NC(=O)NC3CCCCC3)ccc2O1", "values": [{"measurement": "cytotoxicity call", "setting": "[1]", "result": "inactive"}, {"measurement": "cytotoxicity call", "setting": "[2]", "result": "active"}, {"measurement": "growth inhibition call", "setting": "[3]", "result": "inactive"}]}, {"smiles": "C[C@@H]1CN([C@@H](C)CO)C(=O)CCCn2nncc2CO[C@@H]1CN(C)C(=O)Nc1cccc(Oc2ccccn2)c1", "values": [{"measurement": "cytotoxicity call", "setting": "[1]", "result": "inactive"}, {"measurement": "cytotoxicity call", "setting": "[2]", "result": "inactive"}, {"measurement": "growth inhibition call", "setting": "[3]", "result": "inactive"}]}, {"smiles": "C[C@@H]1CN([C@H](C)CO)C(=O)c2cc(NS(=O)(=O)c3cccs3)ccc2O[C@@H](C)CCCCO[C@H]1CN(C)Cc1ccc(C(=O)O)cc1", "values": [{"measurement": "cytotoxicity call", "setting": "[1]", "result": "inactive"}, {"measurement": "cytotoxicity call", "setting": "[2]", "result": "inactive"}, {"measurement": "growth inhibition call", "setting": "[3]", "result": "inactive"}]}, {"smiles": "Cc1noc(C)c1NC(=O)Nc1ccc2c(c1)C(=O)N([C@H](C)CO)C[C@@H](C)[C@@H](CN(C)Cc1ccc3c(c1)OCO3)OCCCC[C@@H](C)O2", "values": [{"measurement": "cytotoxicity call", "setting": "[1]", "result": "inactive"}, {"measurement": "cytotoxicity call", "setting": "[2]", "result": "inactive"}, {"measurement": "growth inhibition call", "setting": "[3]", "result": "inactive"}]}, {"smiles": "C[C@@H]1CCCCO[C@H](CN(C)C(=O)Nc2ccccc2)[C@@H](C)CN([C@H](C)CO)C(=O)c2cc(NC(=O)Nc3ccc4c(c3)OCO4)ccc2O1", "values": [{"measurement": "cytotoxicity call", "setting": "[1]", "result": "inactive"}, {"measurement": "cytotoxicity call", "setting": "[2]", "result": "inactive"}, {"measurement": "growth inhibition call", "setting": "[3]", "result": "inactive"}]}, {"smiles": "C[C@@H]1CCCCO[C@H](CN(C)C(=O)Cc2ccccc2)[C@@H](C)CN([C@@H](C)CO)C(=O)c2cc(NS(=O)(=O)c3ccc(F)cc3)ccc2O1", "values": [{"measurement": "cytotoxicity call", "setting": "[1]", "result": "inactive"}, {"measurement": "cytotoxicity call", "setting": "[2]", "result": "inactive"}, {"measurement": "growth inhibition call", "setting": "[3]", "result": "inactive"}]}, {"smiles": "C[C@H]1CN([C@@H](C)CO)C(=O)Cc2cc(NS(=O)(=O)c3ccc(Cl)cc3)ccc2O[C@@H]1CN(C)Cc1ccc(-c2ccccc2)cc1", "values": [{"measurement": "cytotoxicity call", "setting": "[1]", "result": "inactive"}, {"measurement": "cytotoxicity call", "setting": "[2]", "result": "inactive"}, {"measurement": "growth inhibition call", "setting": "[3]", "result": "inactive"}]}, {"smiles": "CN(C)CCCNC(=O)C[C@@H]1CC[C@@H]2[C@@H](COc3ccc(NS(C)(=O)=O)cc3C(=O)N2C)O1", "values": [{"measurement": "cytotoxicity call", "setting": "[1]", "result": "inactive"}, {"measurement": "cytotoxicity call", "setting": "[2]", "result": "inactive"}, {"measurement": "growth inhibition call", "setting": "[3]", "result": "inactive"}]}, {"smiles": "COc1cccc(S(=O)(=O)N(C)C[C@@H]2Oc3ncc(-c4cccc(C(=O)N(C)C)c4)cc3C(=O)N([C@H](C)CO)C[C@H]2C)c1", "values": [{"measurement": "cytotoxicity call", "setting": "[1]", "result": "inactive"}, {"measurement": "cytotoxicity call", "setting": "[2]", "result": "inactive"}, {"measurement": "growth inhibition call", "setting": "[3]", "result": "inactive"}]}, {"smiles": "COc1ccc(-c2ccc3c(c2)O[C@H](CN(C)CC2CCOCC2)[C@@H](C)CN([C@H](C)CO)S3(=O)=O)cc1", "values": [{"measurement": "cytotoxicity call", "setting": "[1]", "result": "inactive"}, {"measurement": "cytotoxicity call", "setting": "[2]", "result": "inactive"}, {"measurement": "growth inhibition call", "setting": "[3]", "result": "inactive"}]}, {"smiles": "O=C(C[C@H]1C[C@@H]2c3cc(NS(=O)(=O)c4ccc(F)cc4)ccc3O[C@@H]2[C@H](CO)O1)NC1CCCCC1", "values": [{"measurement": "cytotoxicity call", "setting": "[1]", "result": "inactive"}, {"measurement": "cytotoxicity call", "setting": "[2]", "result": "inactive"}, {"measurement": "growth inhibition call", "setting": "[3]", "result": "inactive"}]}, {"smiles": "CN1C[C@H](C#N)CC1=O", "values": [{"measurement": "cytotoxicity call", "setting": "[1]", "result": "inactive"}, {"measurement": "cytotoxicity call", "setting": "[2]", "result": "inactive"}, {"measurement": "growth inhibition call", "setting": "[3]", "result": "inactive"}]}, {"smiles": "C[C@@H]1CCCCO[C@H](CN(C)C(=O)Nc2ccc(C(F)(F)F)cc2)[C@@H](C)CN([C@@H](C)CO)C(=O)c2cc(NS(=O)(=O)c3cccs3)ccc2O1", "values": [{"measurement": "cytotoxicity call", "setting": "[1]", "result": "inactive"}, {"measurement": "cytotoxicity call", "setting": "[2]", "result": "active"}, {"measurement": "growth inhibition call", "setting": "[3]", "result": "inactive"}]}]}
